Data published in PubChem BioAssay AID686978 (National Center for Advancing Translational Sciences (NCATS), 2013).
Among all 420,000 compounds or so, about 64,000 (15%) were called active. The inconclusive results got no clear call from the source; some entries with a clear call stand among them for comparison. Calls come from the whole dose curve; as a rule, active = well fitted inhibition curve with a large enough effect; inconclusive = small, poorly fitted or top-dose-only effect; inactive = flat fitted curve, though single readings scatter. Potencies of inconclusive entries are left out as doubtful fits.

test: qHTS for Inhibitors of human tyrosyl-DNA phosphodiesterase 1 (TDP1): qHTS in cells in absence of CPT; conditions: DT40 Tdp1-/- hTDP1 cells, no CPT, ATP luminescence, 48 h; activity change, negative = growth inhibition: at 46.2 µM (top of the series); note: nearly all actives have a fitted effect of over 55% in size
Procedure, shortened: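 Stably hTDP1-transfected Tdp1-null chicken DT40 cells were treated with library compounds minus camptothecin and grown for at least 48 hr at 37 °C, after which cellular ATP was quantified by luminescence.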
% is set by controls: 0 for no effect and ±100 for the full control effect; potency is the fitted concentration of half-maximal effect; tags give direction and shape of the fitted curve.

SMILES	activity change, negative = growth inhibition	Potency
Nc1cc(S(=O)(=O)O)cc2ccc(S(=O)(=O)O)cc12	inactive: 7.38%	–
O=S(=O)(Nc1ccc2c(c1)OCCO2)c1cccc(F)c1	inactive: -10.1%	–
O=C(/C=C/c1ccc2c(c1)OCO2)c1ccccn1	–	active: 18.4 µM
Cc1ccc(Cl)cc1N1CCN(S(=O)(=O)c2cc3c(cc2C)NC(=O)CO3)CC1	–	inconclusive [inhibitor, single point]
CCCCC(CC)C(=O)Nc1ccc(C)c(O)c1 (stereo not given)	inactive: -22.5%	–
COc1cccc(C(=O)Nc2cccc(-c3cn4c(C)csc4n3)c2)c1OC	–	active: 16.4 µM
COc1cc2[nH]c(C(=O)Nc3ccc4c(c3)OCCO4)cc2c(OC)c1OC	–	inconclusive [inhibitor, single point]
CCOc1cccc2sc(NC(=O)CC)nc12	inactive: 24.5%	–
CC[n+]1ccc2cc(OC)c(OC)cc2c1Cc1ccc(OC)c(OC)c1	–	inconclusive [inhibitor, partial curve]
CN1CCN(NC(=O)c2cn(-c3ccccc3)nc2-c2cccs2)CC1	inactive: -0.141%	–
Cc1cc2nc(-c3ccccc3)c(Cc3ccccc3)n2c(C)c1Br	–	inconclusive [inhibitor, single point]
COc1cc(SC)ccc1C(=O)NCC1CCCCC1	–	inconclusive [inhibitor, partial curve]
CCOCCCNC(=O)C(NC(=O)c1ccc(=O)[nH]c1)c1ccccc1 (stereo not given)	inactive: -10.4%	–
O=C(Cn1nc(C(F)(F)F)cc1C1CC1)NCc1ccccc1F	inactive: -25.4%	–
Cn1c(=O)c(C(=O)NCCO)c(O)c2ccccc21	–	inconclusive [inhibitor, single point]
CC1(c2cc(F)ccc2F)NC(=O)N(CC(=O)Nc2cccc(S(=O)(=O)N3CCCC3)c2)C1=O (stereo not given)	–	inconclusive [inhibitor, single point]
O=C1C2C3C=CC(CC3)C2C(=O)N1c1ccc([N+](=O)[O-])cc1 (stereo not given)	inactive: 6.25%	–
COc1cccc(C(=O)Nc2c(F)c(F)c(F)c(F)c2F)c1	inactive: -14.2%	–
BrC(/C=C\c1ccccc1)=N/Nc1nc(N2CCOCC2)nc(N2CCOCC2)n1	–	active: 10.3 µM
CCCc1nc2oc3c(Cl)ncnc3c2c2c1CCCC2	–	inconclusive [inhibitor, single point]
COCCn1c(=S)[nH]c2cc(C(=O)N3CCN(c4ccccc4OC)CC3)ccc2c1=O	–	inconclusive [inhibitor, single point]
Cc1cccc(Nc2nc(N)c([N+](=O)[O-])c(NCCO)n2)c1	–	inconclusive [inhibitor, single point]
CNc1nc(-c2ccc3c(c2)OCO3)nc2ccccc12	–	inconclusive [inhibitor, single point]
CC(C)(C)c1ccc(C(O)c2ncc(-c3ccccc3)[nH]2)cc1 (stereo not given)	inactive: -17.7%	–

SMILES	activity change, negative = growth inhibition	Potency
COc1ccc(OC)c(N(CC(=O)Nc2cccc(C(F)(F)F)c2)S(C)(=O)=O)c1	–	inconclusive [inhibitor, single point]
COc1ccc(CCNC(=O)c2cc(-c3ccc(Cl)c(Cl)c3)oc2C)cc1	–	inconclusive [inhibitor, single point]
CC1=C(C)C(=O)OC(C(C)C2CCC3C4CC=C5CC(OC6OC(COC7OC(CO)C(O)C(O)C7O)C(O)C(O)C6O)CC(O)C5(C)C4CCC23C)C1 (stereo not given)	–	inconclusive [inhibitor, single point]
CSc1ccc(CN2CCN(C(C)C)C(CCO)C2)cc1 (stereo not given)	inactive: 0.0311%	–
Cc1ccc(C)c(S(=O)(=O)N2CCCC2CNC(=O)C(=O)NCCc2ccco2)c1 (stereo not given)	–	inconclusive [inhibitor, single point]
Cc1nnc(N2CCCC(C(=O)NCCc3ccc(Cl)cc3)C2)c2nn(-c3ccccc3)c(C)c12 (stereo not given)	–	inconclusive [inhibitor, single point]
CN(CC(=O)Nc1cccc(F)c1)C(=O)CNS(=O)(=O)c1ccc(N(C)C)c([N+](=O)[O-])c1	–	inconclusive [inhibitor, partial curve]
O=C(Nc1ccc(-c2cn3cccnc3n2)cc1)c1cc(Br)ccc1Cl	–	inconclusive [inhibitor, partial curve]
CCc1nc2ccc(C(=O)N3CCN(S(=O)(=O)CC)CC3)cn2c1N(CCC(C)C)CCN(C)C	inactive: -4.77%	–
Cc1cc(C(=O)COc2ccccc2C(N)=O)c(C)n1C1CC1	–	inconclusive [inhibitor, single point]
CCSc1nc2c(c(=O)[nH]c(=O)n2C)n1CC(O)COc1ccccc1 (stereo not given)	–	inconclusive [inhibitor, single point]
COc1ccccc1CNc1nc(C)c(C(=O)N(C)C)s1	–	inconclusive [inhibitor, partial curve]
Cc1ccc(CN2C(=O)CSCC2(C)C(=O)NCc2ccccc2)cc1 (stereo not given)	–	inconclusive [inhibitor, single point]
COc1cc2c(c(OC)c1OC)-c1c(cc3c(c1OC)OCO3)C[C@@H](C)[C@](C)(O)C2	–	inconclusive [inhibitor, single point]
COc1cccc(NC(=O)C2(C)CCN2C(=O)Cc2ccc(C(C)C)cc2)c1 (stereo not given)	–	inconclusive [inhibitor, single point]
Cc1cccc(C(=O)NNC(=O)CCC(=O)Nc2cccc(Cl)c2C)c1	inconclusive: -34.8% [inhibitor]	–
C=CCNc1nc(-c2ccccc2)c(C(=O)OCC)cc1C#N	–	active: 10.3 µM
Cc1csc(NC(=O)CSc2nnc(NC(=O)NC(C)(C)C)s2)n1	–	inconclusive [inhibitor, single point]
Cc1cc(C(c2ccc(O)cc2)c2cc(C)c(O)cc2C)c(C)cc1O	inactive: -5.07%	–
CCOc1cc(C(=O)NC(C)C2CCCO2)cc(OCC)c1OCC (stereo not given)	inactive: 1.87%	–
Cn1c(CCCOc2ccc(Cl)cc2Cl)n[nH]c1=S	–	inconclusive [inhibitor, single point]
O=C(Cn1nnc2ccccc21)NCc1ccccc1	inconclusive: -31.9% [inhibitor]	–
O=C(CN1CCN(c2ccccc2)CC1)Nc1ccccc1Sc1ccccc1	–	inconclusive [inhibitor, single point]
Cc1ccc(C(=O)Nc2ccccc2SCC2CSc3nc4ccccc4c(=O)n32)cc1 (stereo not given)	–	inconclusive [inhibitor, single point]

SMILES	activity change, negative = growth inhibition	Potency
COc1cc(C=O)ccc1OCCOCCOc1c(C)cc(Cl)cc1Cl	–	inconclusive [inhibitor, single point]
COc1cccc(Cn2c(=O)c(-c3cccc(C#N)c3)nc3cnc(N4CCOCC4)nc32)c1	inactive: 0.897%	–
COc1ccc2cc([C@H](C)C(=O)OCc3cn(CC(=O)c4ccc(O)cc4)nn3)ccc2c1	–	inconclusive [inhibitor, single point]
CCOC(=O)c1cc(-c2ccccc2)sc1NC(=O)C(C)N1C(=O)c2ccccc2C1=O (stereo not given)	inactive: -3.55%	–
O=c1[nH]cnc2scc(-c3ccc(-c4ccccc4)cc3)c12	–	inconclusive [inhibitor, partial curve]
C=CCn1c(CNc2ccccc2)nnc1SCC(=O)N/N=C/c1ccccc1O	–	inconclusive [inhibitor, partial curve, poor fit]
COCCN=C1N[C@@H](c2ccc(Br)cc2)C(C(=O)OC)=C(C)N1Cc1ccccc1	–	inconclusive [inhibitor, single point]
O=C(NN=Cc1ccccc1O)C(O)c1ccccc1 (stereo not given)	–	active: 20.6 µM
CC1=C(C(=O)Nc2ccc(C)cc2C)C(c2cccs2)n2nc(SCc3ccccc3Cl)nc2N1 (stereo not given)	–	active: 6.51 µM
CC1CCN(c2ccccc2NC(=O)c2ccc(Br)o2)CC1	–	inconclusive [inhibitor, single point]
CSCC[C@H](NC(=O)OC(C)(C)C)c1nnc(SCc2cccc(F)c2)o1	–	inconclusive [inhibitor, single point]
CCN(Cc1ccccc1)C(=O)Cn1c(=O)n(-c2ccc(C)c(C)c2)c(=O)c2c(C)c(C)sc21	–	inconclusive [inhibitor, single point]
CC(C)(C)NS(=O)(=O)c1cc(C(=O)Nc2sccc2C#N)ccc1Cl	–	active: 11.6 µM
O=c1oc2ccccc2cc1-c1cn2cc(Cc3ccc(Cl)cc3)sc2n1	–	active: 2.59 µM
CCCc1nnc(NC(=O)CCC(=O)N2CCCCC2)s1	inactive: -4.46%	–
CCOC(=O)c1c(NC(=O)COC(=O)Cn2cnc3ccccc32)sc2c1CCC(C)C2 (stereo not given)	–	inconclusive [inhibitor, single point]
COc1ccc2[nH]cc(C(=O)NCCc3ccccc3)c(=O)c2c1	–	active: 18.4 µM
C=C1C=C(C(F)(F)F)n2ncc(C(=O)NCc3ccc(F)cc3)c2N1	–	inconclusive [inhibitor, full curve, poor fit]
C[C@@H]1CN([C@@H](C)CO)C(=O)CCCn2cc(nn2)CO[C@H]1CN(C)C(=O)c1ccc2ccn(C)c2c1	inconclusive: -32.4% [inhibitor]	–
CC(C)c1ccccc1NC(=O)COC(=O)/C=C/c1cccc([N+](=O)[O-])c1	–	inconclusive [inhibitor, single point]
CCOC(=O)c1c(C)[nH]c(CCC(=O)NCc2ccc(N(C)C)cc2)c1C	–	active: 18.4 µM
CCc1nc2c(OCc3ccccc3)cccn2c1N(C)C(=O)COc1ccccc1	–	inconclusive [inhibitor, single point]
